From article PMC4336329 (PLoS ONE, 2015)
The campaign covered roughly 310,000 compounds. About 2,200 (0.71%) showed an effect of 50% or more. Effects have a minus sign here. Some of the results follow.

Each compound was assayed against human ether-à-go-go-related gene (hERG) potassium channel (human, UniProt Q12809) (assay: primary screen, population patch clamp on CHO cells stably expressing hERG).
Sequence of human ether-à-go-go-related gene (hERG) potassium channel (Q12809 whole entry, looked up): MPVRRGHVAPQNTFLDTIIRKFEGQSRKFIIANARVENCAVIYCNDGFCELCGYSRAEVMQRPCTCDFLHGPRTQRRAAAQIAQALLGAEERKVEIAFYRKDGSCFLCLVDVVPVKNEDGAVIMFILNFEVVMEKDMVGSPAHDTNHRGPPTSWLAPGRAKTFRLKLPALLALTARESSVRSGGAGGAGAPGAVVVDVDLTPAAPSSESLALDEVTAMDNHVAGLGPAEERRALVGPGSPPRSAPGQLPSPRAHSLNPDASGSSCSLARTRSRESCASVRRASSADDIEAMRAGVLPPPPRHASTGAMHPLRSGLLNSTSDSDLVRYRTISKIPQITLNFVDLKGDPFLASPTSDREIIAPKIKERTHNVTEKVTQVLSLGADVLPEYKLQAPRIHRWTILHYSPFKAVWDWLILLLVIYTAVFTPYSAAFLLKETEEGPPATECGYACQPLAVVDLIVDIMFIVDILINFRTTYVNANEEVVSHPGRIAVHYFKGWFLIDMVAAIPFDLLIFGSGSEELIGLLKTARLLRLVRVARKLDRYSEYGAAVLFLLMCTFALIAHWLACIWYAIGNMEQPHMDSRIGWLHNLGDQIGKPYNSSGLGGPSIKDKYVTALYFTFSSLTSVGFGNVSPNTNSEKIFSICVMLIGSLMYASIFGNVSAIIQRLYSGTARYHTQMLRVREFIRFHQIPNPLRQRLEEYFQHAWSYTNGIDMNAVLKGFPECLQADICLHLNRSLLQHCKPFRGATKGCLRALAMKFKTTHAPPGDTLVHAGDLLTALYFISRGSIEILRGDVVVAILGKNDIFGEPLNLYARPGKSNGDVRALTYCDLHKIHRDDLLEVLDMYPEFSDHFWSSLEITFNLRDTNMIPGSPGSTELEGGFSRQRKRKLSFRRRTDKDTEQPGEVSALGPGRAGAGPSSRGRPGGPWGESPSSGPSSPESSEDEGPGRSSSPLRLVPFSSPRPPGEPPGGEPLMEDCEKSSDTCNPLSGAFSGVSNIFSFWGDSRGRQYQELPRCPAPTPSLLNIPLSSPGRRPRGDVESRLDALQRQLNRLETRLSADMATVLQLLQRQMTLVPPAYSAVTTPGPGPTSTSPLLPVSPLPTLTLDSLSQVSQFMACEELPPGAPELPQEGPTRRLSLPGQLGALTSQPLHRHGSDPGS

Compound	hERG current change (%, negative = inhibition) at 1uM [%]
Cc1cc(/C=C2/NC(=O)N(Cc3ccccc3F)C2=O)c(C)n1-c1ccccn1	15
COc1ccccc1CC(=O)N1CCCC1	13.7
COc1ccc(NC(=S)NC(=O)c2cccnc2)cc1	11.5
CCCn1c(SCC(=O)Nc2sc(C)c(C)c2C(=O)OCC)nc2c1c(=O)n(C)c(=O)n2C	-0.657
CCCc1nc2ccccc2n1CC(O)COc1ccc(NC(C)=O)cc1 (stereo not drawn)	2.54
CCC(=O)Nc1ccc(-c2ccc(N3CCC(C)CC3)nn2)cc1	12.1
Cl.Cn1nnnc1SCCNCc1ccccc1OCc1ccc(Cl)cc1	-31.8
O=C(CCCCC(=O)Nc1ccc(F)cc1F)Nc1ccc(F)cc1F	7.17
COCCn1c(=O)[nH]c2cc(C(=O)Nc3cccc(C(C)=O)c3)ccc2c1=O	-17.4
CC(=O)OC(C(=O)NC1CCCCC1)c1ccccc1F (stereo not drawn)	13.8
CC1(c2ccccc2)NC(=O)N(CC(=O)NNC(=O)c2cccc(Cl)c2)C1=O (stereo not drawn)	0.487
O=C(NCCc1c[nH]c2ccccc12)c1cccc(Br)c1	8.79
COc1ccc(OC)c(NC(=O)c2ccc(OCC(=O)N3CCOCC3)c(OC)c2)c1	9.79
Cc1ccnc(-n2c(C)cc(/C=C3\C(=O)NC(=S)N(C)C3=O)c2C)c1	9.12
CCN(CC)c1ccc(-c2nnc(SCC(=O)Nc3ccccc3C#N)n2-c2ccccc2)cc1	6.92
COc1ccc(S(=O)(=O)n2c([N+](=O)[O-])cnc2C)c(C)c1C	12.9
COCCOC(=O)c1ccc(NC(=O)COc2ccc([N+](=O)[O-])cc2)cc1	7.53
COc1ccc(CCNC(=O)c2ccc(Cl)cc2)cc1OC	9
O=C(CC(C(=O)O)N1CCOCC1)Nc1ccc(Cl)cc1 (stereo not drawn)	9.6
COc1ccc(/C=N/NC(=O)c2cccc(NC(=O)c3ccc(Cl)cc3)c2)c(OC)c1	6.89
CC(=O)c1nn(-c2cccc(Br)c2)cc1C(=O)c1ccc(C)cc1	11.9
CCC(C)N(C(=O)COC(=O)CSc1ccc(C)c(C)c1)C1CCS(=O)(=O)C1 (stereo not drawn)	4.13

Compound	hERG current change (%, negative = inhibition) at 1uM [%]
N#C/C(=C(/O)c1ccc([N+](=O)[O-])cc1)c1nc2ccccc2[nH]1	10.7
Cc1ccccc1NC(=S)NCc1ccc2[nH]c3c(c2c1)CCCC3	6.19
COc1cccc(NC2c3ccccc3C(=O)N2Cc2ccco2)c1 (stereo not drawn)	-0.361
C=C(Cl)COC(=O)C1C2C=CC(C2)C1C(=O)O (stereo not drawn)	6.19
CCCCS(=O)(=O)N1CCCC(C(=O)Nc2ccc3c(c2)CCC3)C1 (stereo not drawn)	6.94
CCC1(c2ccccc2)NC(=O)N(CC(=O)Nc2ccc(Cl)c(S(=O)(=O)N3CCCCC3)c2)C1=O (stereo not drawn)	18.8
O=C(COC(=O)c1ccc(S(=O)(=O)N2CCCC2)cc1)NCc1ccc(Cl)cc1	0.537
Cc1cccc(NNC(=O)C(=O)NNc2cccc(C)c2)c1	13.1
O=C(CN1C(=O)c2ccccc2S1(=O)=O)NCCSc1ccccc1	4.96
S=c1[nH]nc(-c2ccncc2)n1/N=C/c1cn(-c2ccccc2)nc1-c1ccc(Cl)cc1	-0.199
Cn1cnnc1Sc1ccc(C(=O)OCC(=O)Nc2cc(Cl)cc(Cl)c2)cc1[N+](=O)[O-]	0.871
COc1ccc(CC(=O)NNC2=Nc3cccc4cccc2c34)cc1	14.1
CCCOc1ccc(C2C(C(=O)c3cc4ccccc4o3)=C(O)C(=O)N2c2cc(C)on2)cc1 (stereo not drawn)	15.6
COc1ccc(CNC(=O)CN2C(=O)COc3ccc(S(=O)(=O)NC4CCCC4)cc32)cc1	1.06
CCOC(=O)c1oc2c(c1C)C(=O)CCC2	15.4
COc1ccc(CN(CC(=O)NCCc2ccccc2)C(=O)CCC(=O)Nc2ccccn2)cc1	-4.78
COc1cc(S(=O)(=O)NCc2ccccc2)ccc1-n1cnnn1	1.45
CCOC(=O)c1[nH]cnc1C(=O)Nc1ccc(C)cc1	11.8
S=c1nccc(-c2ccc3c(c2)CCO3)[nH]1	3.6
O=C(NCCCc1ccccc1)C(=O)NCC1OCCN1S(=O)(=O)c1ccc(F)cc1 (stereo not drawn)	12
CCOC(=O)c1c(C)n(OCc2ccccc2)c2ccc3c(no[n+]3[O-])c12	10.8
COc1ccc(C2=NCC(=O)N(CC(=O)NCc3ccco3)c3sc4c(c32)CCCC4)cc1OC	10.1

Compound	hERG current change (%, negative = inhibition) at 1uM [%]
CCN(CC)CCn1c2c(c(SCC(=O)NCc3ccccc3)nc1=O)CCCC2	-5.34
COc1ccc(/C(C)=N/Nc2nc3ccccc3n3cnnc23)cc1OC	-3.91
CCN(CC)S(=O)(=O)c1ccc(C(=O)NCc2ccc3c(c2)OCO3)cc1	4.58
O=C1CC(N2CCN(S(=O)(=O)c3cccc(C(F)(F)F)c3)CC2)C(=O)N1Cc1ccccc1 (stereo not drawn)	11.1
COc1cc(C)c(CNc2cccc(C)c2)cc1C	7.65
CCN(CC)S(=O)(=O)c1ccc(Cl)c(C(=O)OC2CC(C)OC2=O)c1 (stereo not drawn)	13.8
CC1CCC(NC(=O)C2CCN(S(=O)(=O)c3cccc4nonc34)CC2)CC1 (stereo not drawn)	16
CCn1c(O)c(C=Nc2ccc(N3CCOCC3)c(Br)c2)c(=O)n(CC)c1=S	10.3
COC(=O)CC(=O)N1CCN(c2ccc(Cl)c(Cl)c2)CC1	3.4
C/C(=N\NC(=O)c1c(C)nc2ccccn12)c1ccccc1F	12.1
CNc1cc(CSC)nc(SCc2ccc(Cl)c(Cl)c2)n1	10.2
O=C(O)C(=O)O.O=[N+]([O-])c1ccc(S(=O)(=O)N(CCCN2CCOCC2)Cc2cccs2)cc1	-22.5
COc1cc(-c2nc(Cc3ccccc3Cl)no2)cc(OC)c1OC	-2.18
CCCOc1ccc(C2C(C(=O)OC)=C(C)N=C3SCCC(=O)N32)cc1OCC (stereo not drawn)	-0.267
Cc1cc(C)c(NC(=O)c2ccc(S(=O)(=O)N(C)C)cc2)c(C)n1	8.31
CC(=O)c1ccc(NC(=O)c2sc3nc(C)c(C)c(C)c3c2N)cc1	16.2
Cl.O=C(NCCN1CCN(c2ccccc2)CC1)c1ccccc1F	9.01
CCc1ccc2oc(=O)cc(CN(C)Cc3ccccc3)c2c1	6.82
Cc1ccc(N2C(=O)CC(=O)NC2=O)c(C)c1	14.9
Cn1c(SCc2ccccc2F)nc2ccccc2c1=O	-2.19
CCC(C)(C)n1nnnc1C(C(C)C)N(CCCO)Cc1cc2cc(C)ccc2[nH]c1=O (stereo not drawn)	3.96
Cc1cc(C)cc(C(=O)NCC(=O)N2CCC3(CC2)NCCc2[nH]cnc23)c1	16.6

Compound	hERG current change (%, negative = inhibition) at 1uM [%]
CN(Cc1cccs1)C(=O)CNC(=O)c1ccco1	2.88
CNC(=O)c1ccccc1NC(=O)C1CC(=O)N(c2ccc(OC)cc2)C1 (stereo not drawn)	9.77
COC(=O)c1cccc(Nc2nc3ccccc3nc2C)c1	12.4
CN(C)c1ccc(/C=N/NC(=O)c2ccc3c(c2)OCCO3)cc1	6.47
COc1ccc(C(=O)Nc2cccc(S(C)(=O)=O)c2)cc1	-4.88
CSc1nc2ccc(Nc3nc(N4CCOCC4)nc(N4CCOCC4)n3)cc2s1	-7.88
CC(C)C[C@H](NC(=O)c1nc[nH]c1C(=O)N(C)Cc1ccccc1)C(=O)OC(C)(C)C	11.8
Cc1cc(OCC(=O)N2CCC(C(=O)O)CC2)c2c(C)cc(=O)oc2c1	1.81
COc1cc(/C=C(\C#N)c2ccccn2)ccc1OCc1ccccc1Cl	5.19
Cc1cccc2cc(CN(CC3CCCO3)C(=O)c3ccco3)c(=O)[nH]c12 (stereo not drawn)	3.08
O=C(Nc1ccccc1N1CCN(C(=O)c2ccccc2)CC1)c1cccc(Cl)c1	-12.6
NC1=NC(=O)C(Cc2ccc(OC(F)(F)F)cc2)S1 (stereo not drawn)	11.9
CC(NC(=O)CSc1ncccc1C(=O)O)C1CC2CCC1C2 (stereo not drawn)	7.06
Cc1ccccc1CC1(CO)CCCN(C(=O)c2cc(-c3ccccc3)no2)C1 (stereo not drawn)	8.98
Cn1c(SCC(=O)c2ccccc2)nnc1-c1ccco1	12.5
COc1ccc(-c2noc(CN(C)C(=O)c3ccc4c(c3)OCO4)n2)cc1OC	11
C[C@H](NC(=O)c1nc[nH]c1C(=O)NC(c1ccccc1)c1ccccc1)C(=O)OCc1ccccc1	14.8
COc1ccccc1NC(=O)NCC1CC1(Cl)Cl (stereo not drawn)	9.83
CC(NC(=O)COc1ccccc1)C(c1cccs1)N1CCCC1 (stereo not drawn)	9.93
Fc1ccccc1CNc1nc(-c2cccnc2)nc2ccccc12	19.7
CCOC(=O)C1=C(CC)Nc2ccccc2N/C1=N\S(=O)(=O)c1ccc(C(=O)OCC)cc1	9.45
